Fewer than 10 of roughly 2,200 compounds were called active. Some of the results follow. Where no call is shown, the source marks the result inconclusive.

In this assay the target is GTPase KRas (Homo sapiens) (UniProt P01116). Description: Covalent labelling of cysteine mutants by fragments, read by mass spectrometry (AID 2202238). Set-up: protein at 5 µM with 500 µM competing thiol for 1.5 h. The settings on record: KRAS G12D cysteine mutants, disulfide tethering, MALDI-TOF labeling; stronger effect = higher value; H27C mutant labeling; fragment at 500 µM.
Sequence of UniProt P01116 (P01116 whole entry, looked up, the tested form may be a part): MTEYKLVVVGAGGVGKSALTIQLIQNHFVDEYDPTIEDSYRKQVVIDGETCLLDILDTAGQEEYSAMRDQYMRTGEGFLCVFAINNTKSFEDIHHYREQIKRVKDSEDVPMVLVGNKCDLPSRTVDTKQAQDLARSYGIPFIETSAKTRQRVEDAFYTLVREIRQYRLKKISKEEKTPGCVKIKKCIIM
Molecule `O=C(NCCS)c1ccc(-n2cnc3ccccc32)nc1` gave a percent labeling of 22.6%.
For the molecule `Cc1ccc2c(CCNC(=O)CCS)c[nH]c2n1`, the percent labeling is 34.6%.
The value for `CC(C)n1cc(C2=CCCN(C(=O)CCS)CC2)nn1` was 26.5%; that for `O=C(CCS)NCC12CC(Cc3ccccc3)(CO1)C2` was 35.8%.
`NC(=O)C1(N2CCN(C(=O)CCS)CC2)CCCCC1`: the percent labeling worked out at 38.3%.
To `Cc1cc(NC(=O)CCS)nn1Cc1ccccc1Cl` belongs 46%; to `CN(Cc1nc2ccccc2c(=O)[nH]1)C(=O)CCS`, 35.6%; to `O=C(NCCS)c1ccc(Cl)c(N2CCNC2=O)c1`, 47.9%.
To `O=C(CCS)Nc1ccccc1CN1CCc2ccccc21` belongs 14.5%; to `CCCN(CCC)C(=O)c1ccc(NC(=O)CCS)cc1`, 41.6%; to `O=C(Cc1sc(-c2ccccc2)nc1-c1cccs1)NCCS`, 15.9%.
The value for `O=C(CCCc1ccc2[nH]c(=O)[nH]c2c1)NCCS` was 48.4%; that for `O=C(NCCS)C(c1ccncc1)C1CCCCC1` (configuration not stated) was 34.2%.
`O=C(NCCS)c1ccc(-n2ncc3ccccc32)c(Cl)c1` displayed a percent labeling of 15.8%.
The value for `Cn1cc(C(=O)NC2CCN(C(=O)CCS)CC2)cn1` was 46.4%; that for `CCN(CC)C(=O)N1CCC(C(=O)NCCS)CC1` was 35.8%.
The value for `CCn1c(=O)[nH]c(=O)c2c(C(=O)NCCS)cc(C3CC3)nc21` was 26.6%; that for `CN(C(=O)CCS)C1CS(=O)(=O)C1(C)C` (configuration not stated) was 34.3%.
The molecule `O=C(CCS)Nc1ccc(S(=O)(=O)CC2CCOC2)cc1` (configuration not stated) returned a percent labeling of 42.4%.
With `NC(=O)NC1CCC(NC(=O)CCS)CC1` (configuration not stated), the percent labeling stood at 34.5%.
The value for `O=C(CCS)Nc1cccc(-c2n[nH]c3c2CCC3)c1` was 46.9%; that for `O=C(NCCS)c1cccc2[nH]c(C(F)F)nc12` was 27.8%.
With `O=C(NCCS)C1CCCCC1c1nc2ccccc2[nH]1` (configuration not stated), the percent labeling came out at 31.8%.
The value for `Cc1c(C(=O)NCCS)cccc1N1CCNC1=O` was 34.4%.
The value for `O=C(CCS)NCC1(O)CC2CCC(C2)C1` (configuration not stated) was 35.1%; that for `O=C(NCCS)c1cc2c(OC(F)F)cccc2[nH]1` was 27.2%.
To `O=C(CCS)NC1CC(O)(C2(O)CCC2)C1` (configuration not stated) belongs 31%.
Turning to `Cc1oc2[nH]c(=O)n(-c3ccccc3)c(=O)c2c1C(=O)NCCS`, the percent labeling amounted to 14.7%.
The value for `O=C(CCc1c(-c2ccccc2)[nH]c2ccc(F)cc12)NCCS` was 20.6%; that for `CNC(=O)c1cccc(NC(=O)CCS)c1C` was 32.7%.
The value for `O=C(Cc1coc2cc(Cl)ccc12)NCCS` was 35.7%.
The value for `Cn1c(C(F)(F)F)nc2cncc(C(=O)NCCS)c21` was 39.4%; that for `O=C(CCS)N1CCCN(c2ccc(C(F)(F)F)cn2)CC1` was 41.5%.
As for `Cc1nc2cc(NC(=O)CCS)ccc2n1C`, the percent labeling was 42%.
Molecule `CC(C)N1Cc2cccc(NC(=O)CCS)c2C1` returned a percent labeling of 47.7%.
To `O=C(CCS)Nc1ccc(F)cc1OCC(F)F` belongs 34.7%; to `CCOc1cc(NC2CCN(C(=O)CCS)CC2)ncn1`, 45.5%; to `O=C(CCS)NCCOc1cn[nH]c1C(F)(F)F`, 37.3%.
The value for `Cn1cc(NC(=O)CCS)c(=O)n(C)c1=O` was 39%.
`Cc1c(C)c2c(c(C)c1O)CCC(C)(C(=O)NCCS)O2` (configuration not stated) displayed a percent labeling of 35.2%.
To `O=C(NCCS)c1cc2c(Cl)cccn2n1` belongs 38.5%; to `Cc1ccc(C)c(-n2cnc3cc(C(=O)NCCS)ccc32)c1`, 27.8%.
Regarding `Cc1nn(C)c(C)c1CC(C)C(=O)NCCS` (configuration not stated), the percent labeling is 27.7%.
The value for `O=C(NCCS)c1cc(-c2ccccc2)nc2cc(Br)ccc12` was 14%; that for `CC(C)c1cccc(-c2ccc(C(=O)NCCS)o2)c1` was 31.4%.
The value for `CCOc1ccccc1-c1cccc(C(=O)NCCS)c1` was 24.9%.
Take `Cc1cc(CCCC(=O)NCCS)c(C)s1`: the percent labeling was 23.2%.
To `O=C(CCS)NC1CCC(N2CCCC2=O)CC1` (configuration not stated) belongs 33.6%; to `O=C(NCCS)C1(N2CCOCC2)CCCC1`, 33.6%.
The value for `CC(=NOCC(=O)NCCS)c1ccc2c(c1)OCO2` was 23.9%.
For the molecule `O=C(NCCS)C1CCCCC1c1nc2ccccc2s1` (configuration not stated), the percent labeling came out at 25.3%.
Molecule `O=C(NCCS)c1ccc(-c2nc3ccccc3s2)o1` displayed a percent labeling of 29.5%.
To `O=C(NCCS)c1c(Br)ccc(F)c1OC(F)(F)F` belongs 24.5%; to `Cc1cc(C(=O)NCCS)n(-c2ccccc2)n1`, 33%.
The value for `O=C(CC(n1cccn1)C(F)(F)F)NCCS` (configuration not stated) was 29.5%.
The value for `O=C(CCS)N1CCC(c2ccc3cccnc3n2)CC1` was 44.2%.
In the case of `CC(C)Cn1[nH]c(CC(=O)NCCS)cc1=O`, the percent labeling was found to be 15.2%.
Turning to `O=C(Cn1cnc2sc(-c3ccccc3)cc2c1=O)NCCS`, the percent labeling is 0%.
Take `Cc1[nH]ncc1C(=O)NCCS`: the percent labeling came out at 31.1%.
The value for `O=C(CCS)NCc1nocc1-c1ccc(Cl)cc1` was 51.8%; that for `Cc1nnc2ccc(C(=O)NCCS)cc2c1C` was 15.7%; that for `O=C(NCCS)[C@@H]1OCCC[C@@H]1c1ccccc1` was 31.7%.
The value for `CCn1c(=O)[nH]c2cc(C(=O)NCCS)ccc21` was 38.7%; that for `O=C(COc1ccc(Br)cc1Cl)NCCS` was 29.1%; that for `CC(=O)NCc1ccc(C(=O)NCCS)s1` was 43.7%.
The value for `Cc1ccc(C(=O)NC(CC(=O)NCCS)c2ccccc2)cc1` (configuration not stated) was 14.3%; that for `O=C(CCNC(=O)c1c[nH]c2ccccc12)NCCS` was 35.1%; that for `O=C(COc1ccc2oc3c(c2c1)CCCC3)NCCS` was 20.1%.
`CN(C(=O)CCS)C1c2cc(Cl)cc(Cl)c2CC1O` (configuration not stated) yielded a percent labeling of 38.7%.
To `O=C(Cc1ccc(F)c(Cl)c1)NCCS` belongs 28.3%; to `O=C(CCS)NCC1(COc2ccc(Br)cc2)COC1`, 30%.
The value for `CC(C(=O)NCCS)c1ccc(Br)cc1` (configuration not stated) was 38.1%.
The molecule `Cc1cc(OCC(=O)NCCS)cc(C)c1Cl` showed a percent labeling of 24.3%.
For the molecule `CN(C)Cc1ccoc1-c1n[nH]c(CNC(=O)CCS)n1`, the percent labeling was 43.8%.
`O=C(CCS)NC1CCN(c2ccn[nH]2)C1=O` (configuration not stated) gave a percent labeling of 36.3%.
To `Cc1cc(=O)c(OCc2ccccc2)c(CNC(=O)CCS)n1C` belongs 35.2%; to `Cc1sc(C(N)=O)cc1NC(=O)CCS`, 50.5%; to `O=C(CCS)Nc1cccc(-c2cccnc2)c1`, 42.2%.
To `O=C(CCS)NC1(c2ccc(F)cc2F)CCCCC1` belongs 33.6%; to `Cc1ccc(NC(=O)CCS)cc1Oc1ccc(Cl)cc1`, 24.7%.
As to `Cc1cccc(=O)n1CC(C)(O)C(=O)NCCS` (configuration not stated), the percent labeling was 24.8%.
For the molecule `O=C(CCS)N1CCC(O)(C2CCCCC2)CC1`, the percent labeling stood at 41%.
To `Cc1ccc(C2=CCN(C(=O)CCS)CC2)cc1` belongs 3.7%; to `O=C(NCCS)c1cnnn1-c1ccccc1Br`, 37.9%.
To `O=C(CCS)N1CCC(Cn2cc(Br)cn2)CC1` belongs 57.8%; to `COC(=O)c1cn(C2CCCN(C(=O)CCS)C2)nn1` (configuration not stated), 33.4%.
To `O=C(NCCS)c1cnc(-c2ccc(C(F)(F)F)cc2)[nH]1` belongs 27.7%; to `COC1CCCCN(CC(=O)NCCS)C1=O` (configuration not stated), 30.3%; to `O=C(CCS)N1CCC(c2cc(=O)[nH]o2)CC1`, 20.1%.
Consider `Cc1cc(NC(=O)CCS)ccc1Oc1ccncc1`, for which the percent labeling came to 48.9%.
To `O=C(CCS)N1CCC(c2ccc(F)cc2)CC1` belongs 40.5%.
The value for `O=C(CCS)Nc1ccn(CCc2ccccn2)n1` was 35.6%.
Molecule `O=C(CCS)NCc1cccc(-c2ccn[nH]2)c1` yielded a percent labeling of 36.6%.
To `O=C(CCS)N1CCN(c2ccc(O)cc2)CC1` belongs 34%; to `O=C(NCCS)c1cn[nH]c1C1CCOCC1`, 42.1%; to `O=C(CCS)NCC(O)c1ccc(O)cc1` (configuration not stated), 29.1%.
Regarding `COc1ncc(Br)cc1CNC(=O)CCS`, the percent labeling is 44.6%.
To `O=C(CCS)NC(c1ccc(Cl)c(F)c1)c1nn[nH]n1` (configuration not stated) belongs 33.4%.
The value for `O=C(CCC(=O)N1CC(=O)Nc2ccccc21)NCCS` was 32.7%.
For `CC(C)(CC(=O)NCCS)Cc1ccc(Cl)cc1`, the percent labeling is 25.1%.
To `Cc1nc2c(o1)CCCC2CC(=O)NCCS` (configuration not stated) belongs 30.8%.
The value for `Cc1ccc(N(Cc2cccs2)C(=O)CCS)cc1` was 35.7%; that for `Cc1n[nH]c(=O)c(CNC(=O)CCS)c1C` was 38.6%; that for `O=C(NCCS)c1ccnn1C1CCOCC1` was 37.6%.
To `O=C(NCCS)c1cn[nH]c1-c1ccc(F)c(Cl)c1` belongs 46.2%.
`O=C(NCCS)C1(c2ccccc2F)CCCC1` came in with a percent labeling of 38.3%.
As to `O=C(CCS)NCCc1nc2ncc(Br)cn2n1`, the percent labeling was found to be 30.6%.
To `Cc1sc(=O)n(CC(=O)NCCS)c1-c1ccccc1` belongs 32.5%; to `COCCN(CCOc1ccc(F)cc1)C(=O)CCS`, 42.2%; to `O=C(CCS)NC1CCCN(c2cc(=O)[nH]cn2)C1` (configuration not stated), 34.3%.
To `Cc1cc(N2CCC(NC(=O)CCS)C2)n(C)n1` (configuration not stated) belongs 24.8%.
To `O=C(CCS)N1Cc2ccc(O)cc2C2(CC2)C1` belongs 33.9%; to `O=C(NCCS)c1ccc(Cc2ccccc2)[nH]1`, 18.7%.
`O=C(CCS)Nc1ccc2c(=O)cc[nH]c2c1` registered a percent labeling of 35.2%.
The value for `CC(C)(C)c1ccc2[nH]c(C(=O)NCCS)cc2c1` was 9.4%; that for `CC(=O)NC1(c2noc(CCC(=O)NCCS)n2)CCCCCC1` was 23.8%; that for `Cc1c[nH]c(=O)n1-c1ccc(C(=O)NCCS)cc1` was 19%.
The value for `O=C(CCS)N1CCN(c2ccc(F)cc2Cl)CC1` was 44.1%; that for `CC(=O)Nc1ccc(CNC(=O)CCS)cc1` was 37.1%; that for `O=C(CCS)N1CC(c2nnc(CO)s2)C1` was 20.3%.
On to `Cn1cnc2ccc(C(=O)NCCS)nc21`, for which the percent labeling came to 47.5%.
To `Cc1cc(C)n2nc(C)c(C(=O)NCCS)c2n1` belongs 35.3%; to `COc1ccccc1Cn1cnc2cc(C(=O)NCCS)ccc21`, 32.5%; to `Cc1cc(C)c(C)c(OCCC(=O)NCCS)c1`, 18.5%.
To `O=C(NCCS)c1c[nH]cc1Cc1ccccc1` belongs 14.9%; to `Cc1cc(NC(=O)CCS)nn1Cc1cccc(C(F)(F)F)c1`, 29.9%; to `Cc1c(C(=O)NCCS)oc2ccccc2c1=O`, 30.7%.
The value for `O=C(CCS)Nc1ccn(Cc2cn3ccccc3n2)n1` was 41.6%; that for `O=C(NCCS)c1cccc(C(=O)Nc2ccccc2)c1` was 27.4%; that for `Cn1nc(NC(=O)CCS)cc1COCCC(F)(F)F` was 39.7%.
On to `O=C(CCS)NC1CCN(C2CCC2)CC1`, for which the percent labeling worked out at 42.7%.
To `O=C(NCCS)c1cc2n(n1)CCCC2` belongs 43.6%.
To `O=C(NCCS)c1cnn(C2CCOCC2)c1` belongs 38.3%.
Turning to `CN(C)c1ncc2c(n1)CCN(C(=O)CCS)C2`, the percent labeling stood at 27.9%.
The value for `Cc1nn(C)cc1CN(CCO)C(=O)CCS` was 25%.
To `CC(C)(C(=O)NCCS)c1cccc(Cl)c1F` belongs 44%.
The value for `Cc1ccc(C2CCCN2C(=O)CCS)s1` (configuration not stated) was 28.9%; that for `CCn1cc(NC(=O)CCS)c(C(=O)NCCc2ccccc2)n1` was 37.1%.
The molecule `Cc1cc(C(=O)NCCS)sc1-c1ccccc1` displayed a percent labeling of 27.2%.
For `O=C(CCS)NCc1nc(-c2cccs2)n[nH]1`, the percent labeling was found to be 38.2%.
The value for `CN(Cc1ccccc1)C(=O)NCCC(=O)NCCS` was 32.1%; that for `CC(C(=O)NCCS)C1OCCc2sccc21` (configuration not stated) was 37.7%.

The values above are taken from PubChem BioAssay AID2202238 (Ras Initiative Chemistry Research Team, Frederick National …, 2025).
